Our source for the half-life (T1/2) of HTTExon1Q48ΔP1 fibrilization, FRET assay over 60 h, with Hsc70, Apg2 and ATP (26 h without chaperones) and stoichiometry N values is publication PMC9365803.

The target in assay [1] is HTTExon1Q48ΔP1.
Assay [2] deals with DNAJB1^wt (human), P25685. Kind of assay: SEC; Superdex 75 10/300 GL and Superose 6; 30 mM HEPES-KOH pH 7.4, 50 mM KCl, 1 mM β-mercaptoethanol; 0.5 ml/min; Conalbumin and Ovalbumin as standards. To be noted: remark: other sources report otherwise. In general terms: SEC sorts molecules by how far they enter the pores of the column.

B1: DNAJB1^wt (natural protein)
chain: MGKDYYQTLGLARGASDEEIKRAYRRQALRYHPDKNKEPGAEEKFKEIAEAYDVLSDPRKREIFDRYGEEGLKGSGPSGGSGGGANGTSFSYTFHGDPHAMFAEFFGGRNPFDTFFGQRNGEEGMDIDDPFSGFPMGMGGFTNVNFGRSRSAQEPARKKQ[about 150 residues not shown]PERIPQTSRTVLEQVLPI
For B1, the half-life (T1/2) of HTTExon1Q48ΔP1 fibrilization, FRET assay over 60 h, with Hsc70, Apg2 and ATP (26 h without chaperones) in assay [1] was found to be 35 h. In addition, the stoichiometry N (as a rule, the number of molecules, sites or subunits per partner or assembly) in assay [2] was 2.
